# Source: the supplement of paper PMC8728848
# The list shows a part of the results.
# Assays:
# Experiment in all cases: glycan array binding signal (z-score within array); higher = stronger binding
# Settings in all cases: glycan notation: IUPAC condensed, linker removed
# [1] = molecular target: Gal(b1-3)GlcNAc(a1-3)Gal(b1-4)GlcNAc
# Summary of the method: (§1)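 The Consortium for Functional Glycomics database supplied 3228 glycan arrays, of which those lacking an available protein sequence were dropped. The binding signal, a within-array Z-score, was averaged across arrays of the same protein sequence and across linkers. Negative scores can be read as non-binding.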
# [2] = molecular target: Gal(b1-3)GlcNAc(a1-6)Gal(b1-4)GlcNAc
# Summary of the method: as §1
# Gal(b1-3)GlcNAc(b1-2)Man = molecular target: Gal(b1-3)GlcNAc(b1-2)Man
# Summary of the method: as §1
# [3] = molecular target: Gal(b1-3)GlcNAc(b1-2)Man(a1-3)[Gal(b1-3)GlcNAc(b1-2)Man(a1-6)]Man(b1-4)GlcNAc(b1-4)GlcNAc
# Summary of the method: as §1
# [4] = molecular target: Gal(b1-3)GlcNAc(b1-2)Man(a1-3)[Gal(b1-3)GlcNAc(b1-2)Man(a1-6)]Man(b1-4)GlcNAc(b1-4)[Fuc(a1-6)]GlcNAc
# Summary of the method: as §1
# [5] = molecular target: Gal(b1-3)GlcNAc(b1-2)Man(a1-3)[GlcNAc(b1-4)][Gal(b1-3)GlcNAc(b1-2)Man(a1-6)]Man(b1-4)GlcNAc(b1-4)GlcNAc
# Summary of the method: as §1
# [6] = molecular target: Gal(b1-3)GlcNAc(b1-2)[Gal(b1-3)GlcNAc(b1-6)]Man(a1-6)[Gal(b1-3)GlcNAc(b1-2)Man(a1-3)]Man(b1-4)GlcNAc(b1-4)GlcNAc
# Summary of the method: as §1
# [7] = molecular target: Gal(b1-3)GlcNAc(b1-3)Gal(b1-3)GlcNAc
# Summary of the method: as §1
# [8] = molecular target: Gal(b1-3)GlcNAc(b1-3)Gal(b1-4)Glc
# Summary of the method: as §1
# [9] = molecular target: Gal(b1-3)GlcNAc(b1-3)Gal(b1-4)GlcNAc
# Summary of the method: as §1
# [10] = molecular target: Gal(b1-3)GlcNAc(b1-3)Gal(b1-4)GlcNAc(b1-2)Man(a1-3)[Gal(b1-3)GlcNAc(b1-3)Gal(b1-4)GlcNAc(b1-2)Man(a1-6)]Man(b1-4)GlcNAc(b1-4)GlcNAc
# Summary of the method: as §1
# [11] = molecular target: Gal(b1-3)GlcNAc(b1-3)Gal(b1-4)GlcNAc(b1-2)[Gal(b1-3)GlcNAc(b1-3)Gal(b1-4)GlcNAc(b1-6)]Man(a1-6)[Gal(b1-3)GlcNAc(b1-3)Gal(b1-4)GlcNAc(b1-2)Man(a1-3)]Man(b1-4)GlcNAc(b1-4)[Fuc(a1-6)]GlcNAc
# Summary of the method: as §1
# [12] = molecular target: Gal(b1-3)GlcNAc(b1-3)Gal(b1-4)GlcNAc(b1-3)Gal(b1-4)GlcNAc(b1-2)[Gal(b1-3)GlcNAc(b1-3)Gal(b1-4)GlcNAc(b1-3)Gal(b1-4)GlcNAc(b1-6)]Man(a1-6)[Gal(b1-3)GlcNAc(b1-3)Gal(b1-4)GlcNAc(b1-3)Gal(b1-4)GlcNAc(b1-2)Man(a1-3)]Man(b1-4)GlcNAc(b1-4)[Fuc(a1-6)]GlcNAc
# Summary of the method: as §1
# [13] = molecular target: Gal(b1-3)GlcNAc(b1-3)Gal(b1-4)GlcNAc(b1-6)[Gal(b1-3)GlcNAc(b1-3)]Gal(b1-4)Glc
# Summary of the method: as §1
# [14] = molecular target: Gal(b1-3)GlcNAc(b1-3)Gal(b1-4)[Fuc(a1-3)]GlcNAc
# Summary of the method: as §1
# [15] = molecular target: Gal(b1-3)GlcNAc(b1-3)Gal(b1-4)[Fuc(a1-3)]GlcNAc(b1-6)[Gal(b1-3)GlcNAc(b1-3)]Gal(b1-4)Glc
# Summary of the method: as §1
# [16] = molecular target: Gal(b1-3)GlcNAc(b1-3)GalNAc
# Summary of the method: as §1
# [17] = molecular target: Gal(b1-3)GlcNAc(b1-6)Gal(b1-4)GlcNAc
# Summary of the method: as §1
# [18] = molecular target: Gal(b1-3)GlcNAc(b1-6)GalNAc
# Summary of the method: as §1
# [19] = molecular target: Gal(b1-3)GlcNAc(b1-6)[Gal(b1-3)]GalNAc
# Summary of the method: as §1
# Gal(b1-3)GlcNAc6S = molecular target: Gal(b1-3)GlcNAc6S
# Summary of the method: as §1
# [20] = molecular target: Gal(b1-3)[Fuc(a1-4)]GlcNAc
# Summary of the method: as §1
# [21] = molecular target: Gal(b1-3)[Fuc(a1-4)]GlcNAc(b1-2)Man
# Summary of the method: as §1
# [22] = molecular target: Gal(b1-3)[Fuc(a1-4)]GlcNAc(b1-2)Man(a1-3)[Gal(b1-3)[Fuc(a1-4)]GlcNAc(b1-2)Man(a1-6)]Man(b1-4)GlcNAc(b1-4)[Fuc(a1-6)]GlcNAc
# Summary of the method: as §1
# [23] = molecular target: Gal(b1-3)[Fuc(a1-4)]GlcNAc(b1-3)Gal(b1-3)[Fuc(a1-4)]GlcNAc
# Summary of the method: as §1
# [24] = molecular target: Gal(b1-3)[Fuc(a1-4)]GlcNAc(b1-3)Gal(b1-4)GlcNAc
# Summary of the method: as §1
# [25] = molecular target: Gal(b1-3)[Fuc(a1-4)]GlcNAc(b1-3)Gal(b1-4)[Fuc(a1-3)]GlcNAc
# Summary of the method: as §1
# [26] = molecular target: Gal(b1-3)[Fuc(a1-4)]GlcNAc(b1-6)GalNAc
# Summary of the method: as §1
# [27] = molecular target: Gal(b1-3)[GlcNAc(b1-6)]GalNAc
# Summary of the method: as §1
# [28] = molecular target: Gal(b1-3)[Neu5Ac(a2-6)]GalNAc
# Summary of the method: as §1
# [29] = molecular target: Gal(b1-3)[Neu5Ac(a2-6)]GlcNAc(b1-4)Gal(b1-4)Glc
# Summary of the method: as §1
# [30] = molecular target: Gal(b1-3)[Neu5Ac(a2-6)]GlcNAc(b1-6)Gal(b1-4)Glc
# Summary of the method: as §1
# [31] = molecular target: Gal(b1-3)[Neu5Ac(b2-6)]GalNAc
# Summary of the method: as §1
# Gal(b1-4)Gal = molecular target: Gal(b1-4)Gal
# Summary of the method: as §1
# [32] = molecular target: Gal(b1-4)GalNAc(a1-3)[Fuc(a1-2)]Gal(b1-4)GlcNAc
# Summary of the method: as §1
# [33] = molecular target: Gal(b1-4)GalNAc(b1-3)[Fuc(a1-2)]Gal(b1-4)GlcNAc
# Summary of the method: as §1
# Gal(b1-4)Glc = molecular target: Gal(b1-4)Glc
# Summary of the method: as §1
binder,measurement,setting,value
"LCA (Lens culinaris), P02870 (protein) MASLQTQMISFYLIFLSILLTTIFFFKVNSTETTSFSITKFSPDQKNLIFQGDGYTTKGKLTLTKAVKSTVGRALYSTPIHIWDRDTGNVANFVTSFTFVIDAPSSYNVADEFTFFIAPVDTKPQTGGGYLGVFNSKEYDKTSQTVAVEFDTFYNAAWDPSNKERHIGIDVNSIKSVNTKSWNLQNGERANVVIAFNAATNVLTVTLTYPNSLEEENVTSYTLNEVVPLKDVVPEWVRIGFSATTGAEFAAHEVHSWSFHSELGGTSSSKQAADA",glycan array binding signal (z-score),[1],-0.217
same,glycan array binding signal (z-score),[2],-0.211
same,glycan array binding signal (z-score),Gal(b1-3)GlcNAc(b1-2)Man,-0.144
same,glycan array binding signal (z-score),[3],0.168
same,glycan array binding signal (z-score),[4],2.03
same,glycan array binding signal (z-score),[5],-0.18
same,glycan array binding signal (z-score),[6],-0.256
same,glycan array binding signal (z-score),[7],-0.234
same,glycan array binding signal (z-score),[8],-0.231
same,glycan array binding signal (z-score),[9],-0.251
same,glycan array binding signal (z-score),[10],-0.176
same,glycan array binding signal (z-score),[11],-0.129
same,glycan array binding signal (z-score),[12],2.72
same,glycan array binding signal (z-score),[13],-0.238
same,glycan array binding signal (z-score),[14],-0.233
same,glycan array binding signal (z-score),[15],-0.222
same,glycan array binding signal (z-score),[16],-0.239
same,glycan array binding signal (z-score),[17],-0.221
same,glycan array binding signal (z-score),[18],-0.214
same,glycan array binding signal (z-score),[19],-0.231
same,glycan array binding signal (z-score),Gal(b1-3)GlcNAc6S,-0.266
same,glycan array binding signal (z-score),[20],-0.2
same,glycan array binding signal (z-score),[21],-0.189
same,glycan array binding signal (z-score),[22],0.823
same,glycan array binding signal (z-score),[23],-0.221
same,glycan array binding signal (z-score),[24],-0.232
same,glycan array binding signal (z-score),[25],-0.232
same,glycan array binding signal (z-score),[26],-0.193
same,glycan array binding signal (z-score),[27],-0.238
same,glycan array binding signal (z-score),[28],-0.204
same,glycan array binding signal (z-score),[29],-0.254
same,glycan array binding signal (z-score),[30],-0.221
same,glycan array binding signal (z-score),[31],-0.232
same,glycan array binding signal (z-score),Gal(b1-4)Gal,-0.259
same,glycan array binding signal (z-score),[32],-0.21
same,glycan array binding signal (z-score),[33],-0.223
same,glycan array binding signal (z-score),Gal(b1-4)Glc,-0.209
